In article PMC6919601, “Identification of Plasmodium dipeptidyl aminopeptidase allosteric inhibitors by high throughput screening” (PLoS ONE, 2019):
Among all 110,000 compounds or so, about 230 (0.21%) showed an effect of 50% or more. The list shows a part of the results.

These molecules were tested against DPAP1 (Plasmodium falciparum, UniProt Q8IIJ9) (assay: primary screen, percent inhibition; read by cleavage of a fluorogenic dipeptide substrate; higher = more effect of the substance).
Set-up: species or system P. falciparum D10 trophozoite lysates; single well
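Also: 30 min substrate incubation versus DMSO and 10 µM JCP410 controls.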

Chain of DPAP1 (Q8IIJ9 whole entry, looked up): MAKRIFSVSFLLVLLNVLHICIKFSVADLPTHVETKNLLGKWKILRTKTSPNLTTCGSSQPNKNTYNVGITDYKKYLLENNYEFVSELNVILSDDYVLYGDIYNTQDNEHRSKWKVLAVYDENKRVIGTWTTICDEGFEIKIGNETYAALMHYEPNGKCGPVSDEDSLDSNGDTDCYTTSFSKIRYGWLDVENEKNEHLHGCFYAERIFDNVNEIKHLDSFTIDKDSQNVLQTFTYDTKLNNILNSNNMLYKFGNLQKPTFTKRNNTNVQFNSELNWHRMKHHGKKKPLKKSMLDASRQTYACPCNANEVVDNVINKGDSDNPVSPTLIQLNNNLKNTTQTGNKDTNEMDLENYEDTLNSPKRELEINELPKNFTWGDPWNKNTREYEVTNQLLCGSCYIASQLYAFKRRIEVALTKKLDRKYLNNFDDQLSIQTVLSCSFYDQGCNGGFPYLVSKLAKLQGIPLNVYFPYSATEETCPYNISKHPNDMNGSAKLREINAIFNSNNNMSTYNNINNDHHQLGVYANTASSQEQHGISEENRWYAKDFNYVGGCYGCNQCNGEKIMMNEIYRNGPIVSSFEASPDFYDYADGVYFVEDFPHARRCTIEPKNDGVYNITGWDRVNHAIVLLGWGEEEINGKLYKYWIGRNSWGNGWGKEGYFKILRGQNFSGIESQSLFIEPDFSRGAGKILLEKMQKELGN

Point of comparison: `COc1ccc(CCN(C)CCC(=O)NCc2ccccc2)cc1OC`, “% Inhibition @ 10 uM” value -6.83%. Against it:
- CC(=O)N(CN1C(=O)c2ccc(Br)cc2C1=O)c1cccc(C(=O)O)c1 — higher, -1.42%
- Cn1c2ccccc2c2cnn(CC(=O)NCCN3CCCCCC3)c(=O)c21 — higher, -3.67%
- COc1cccc(NC(=O)C2(c3ccc(OC)c(OC)c3)CCOCC2)c1 — higher, -3.84%
- O=C(CN1C(=O)c2cccc3cccc1c23)Nc1ccc(S(=O)(=O)Nc2ccccc2)cc1 — lower, -8.18%
- CCCNC(=O)CSc1nnc(C)c2c(C)n(-c3ccc(Cl)cc3)nc12 — higher, 1.23%
- CN1C(=O)/C(=C/c2cc(Cl)ccc2O)S/C1=N/c1cccc(C(=O)O)c1 — higher, 2.13%
- O=C(O)Cc1sc(NCc2ccccc2)nc1-c1ccccc1 — higher, -2.91%
- CC(C)c1nnc(NC(=O)CSc2nnc3c(n2)[nH]c2ccccc23)s1 — higher, 3.34%
- CCOCCCNC(=O)C(CC)n1nc(C)n2c(cc3sccc32)c1=O (stereo not drawn) — higher, 4.95%
- Cc1nn(CC(=O)NCC(C)c2ccccc2)c(=O)c2nn(-c3ccccc3)c(C)c12 (stereo not drawn) — higher, 7.36%
- COc1ccc(-c2noc(-c3cc4c(ccc5ccccc54)oc3=O)n2)cc1 — higher, -2.41%
- O=C(/C=C/c1ccc(F)cc1)NC(Cc1c[nH]c2ccccc12)C(=O)O (stereo not drawn) — higher, 0.565%
- COc1cc(C(=O)Nc2ccc(C)cc2Br)cc(OC)c1OC — higher, -0.351%
- O=C(CSc1cccs1)Nc1cccc2ccccc12 — higher, 1.59%
- COc1ccc(S(=O)(=O)N2CCSC2c2ccc(OC)c(Br)c2)cc1 (stereo not drawn) — lower, -12.1%
- Fc1ccccc1Nc1nc(-c2cccs2)cs1 — higher, -3.44%
- COc1ccc(C)cc1NC(=O)/C=C/c1ccccc1 — higher, -5.11%
- COc1ccc(-c2noc(-c3nnn(-c4ccc(C(F)(F)F)c(Cl)c4)c3N)n2)cc1 — higher, 1.13%
- Cc1ccsc1CCNC(=O)CCc1c(C)nc2c(c(C)nn2C(C)(C)C)c1C — higher, -2.45%
- COc1ccc(N2CCN(c3oc(COc4cccc(C)c4)nc3C#N)CC2)cc1 — higher, 6.13%
- CCN(C(=O)c1ccco1)c1ccccc1 — higher, -4.31%
- N=C1c2ccccc2CN1c1cccc(O)c1 — higher, -5.28%
- Cc1ccc(C/N=c2/c(-c3cc(C)c(C)cc3C)c(O)c2=O)o1 — higher, -4.36%
- Cc1ccc(C)c(Cn2c(C)c(CNCCC3=CCCCC3)c(C(=O)O)c2C)c1 — higher, 8.86%
- Cc1cccc(CNC(=O)c2ccc(CN3CC(=O)N4CCCCC4C3=O)cc2)c1 (stereo not drawn) — higher, 3.7%
- C=CCN1C(=O)S/C(=C/c2ccccc2F)C1=O — higher, -0.28%
- CCOc1ccc(C2C3=C(O)CCCC3=Nc3nc(C(F)(F)F)nn32)cc1OC (stereo not drawn) — higher, -5.19%
- CC(=O)CCS(=O)(=O)c1ccc2ccccc2c1 — higher, -2.03%
- FC(F)(F)c1cc(-c2ccco2)nc(NCc2cccnc2)n1 — higher, 3.33%
- O=C1N=C(Nc2ccccc2)S/C1=C\c1ccc(N2CCCC2)o1 — higher, 5.54%
- CC1(C)CC(CC#N)(Cc2ccccc2)CCO1 (stereo not drawn) — higher, -4.35%
- CC1=C(C(=O)OCC2CCCO2)C(c2ccccc2)NC(=O)N1 (stereo not drawn) — higher, 2%
- Cc1nn(-c2ccccc2)c(Cl)c1C1C(C#N)=C(N)OC2=C1C(=O)CC(C)(C)C2 (stereo not drawn) — higher, -2.8%
- COc1ccc(S(=O)(=O)NCc2cccnc2)cc1Br — higher, 0.687%
- CCN1CCN(CCC/N=c2/c(-c3ccccc3)c(O)c2=O)CC1 — higher, 1.14%
- CCN(CC)CC#CC1(OC(C)=O)CCCCC1 — higher, 0.605%
- O=C(NCC1OCCc2ccccc21)c1ccc(Cl)cc1Cl (stereo not drawn) — higher, 0.587%
- CC(=O)c1cc(-c2ccc(F)cc2)n(CC(=O)N2CCN(C3CCCCC3)CC2)c1C — higher, 3.07%
- O=C(CSc1nnc(C2COc3ccccc3O2)o1)NC1CCCCC1 (stereo not drawn) — higher, 5.1%
- COc1ccc(-n2c(SCC(=O)NC3CCCCC3)nnc2-c2cccs2)cc1 — higher, 0.9%
- Nc1c([S+](O)c2ccccc2)sc2nc3c(cc12)CCCC3 (stereo not drawn) — higher, 1%
- Cc1ccc(S(=O)(=O)NC2CCN(c3ncccn3)CC2)cc1 — higher, -1.11%
- COc1cc(/C=C2/S/C(=N\c3ccccc3)N(C)C2=O)ccc1C — higher, 2.24%
- COCCCNC(=O)CSc1[nH]c(-c2ccc(F)cc2)nc1-c1ccccc1 — higher, 3.48%
- NC(=O)c1c(NC(=O)c2cccc(Cl)c2)sc2c1CCCC2 — higher, -6.22%
- COC(=O)[C@H](Cc1ccccc1)NC(=O)N[C@@H](CC(C)C)C(=O)NCC#N — higher, -3.04%
- CCOC(=O)C1=C(C)OC(N)=C(C#N)C1c1ccccc1F (stereo not drawn) — higher, -2.42%
- CCc1ccc(CNC(=O)C2CCC(=O)N2C2CCCC2)cc1 (stereo not drawn) — higher, -1.21%
- CC(=O)c1cccc(NC(=O)c2cccc(C(F)(F)F)c2)c1 — higher, -6.66%
- Cc1ncsc1C(=O)NCc1ccc(S(N)(=O)=O)cc1 — higher, 2.77%
- CC1=NN(C(=O)Cn2c3c(c4ccccc42)CCCC3)C(O)(C(F)(F)F)C1 (stereo not drawn) — higher, -0.25%
- O=C(Nc1cccc(-c2cc3ccccc3oc2=O)c1)c1ccccc1F — higher, -5.9%
- COc1cc(C2=N/C(=C\c3ccc(SC)cc3)C(=O)O2)cc(OC)c1OC — lower, -20.1%
- CC(=O)NS(=O)(=O)c1ccc(NC(=O)c2c(-c3ccccc3)noc2C)cc1 — higher, 0.316%
- Cc1ccc2oc(C(=O)NCc3ccc4c(c3)OCO4)cc(=O)c2c1 — higher, -3.24%
- Cc1ccc(NC(=O)COc2ccc3ccccc3c2)cc1F — higher, 0.145%
- Cc1nn(-c2ccccc2)c(Cl)c1/C=c1\sc2nc3ccccc3n2c1=O — higher, 2.79%
- CC1=C(C(=O)N2CCN(c3ccc(F)cc3)CC2)C(c2ccccc2Cl)C(C#N)=C(N)O1 (stereo not drawn) — higher, 21.9%
- COc1ccc(C2(C(=O)O)CCCC2)cc1OC — lower, -7.26%
- CC(C)N(CCNC(=O)c1oc(=O)c2ccccc2c1-c1ccccc1)Cc1ccco1 — higher, -2.88%
- COc1ccc(C(=O)Cc2ccc(OC)cc2C)cc1 — higher, 1.92%
- CCC(NS(=O)(=O)c1ccccc1)(C(=O)O)c1ccccc1 (stereo not drawn) — higher, 4.75%
- CCCS(=O)(=O)N1CCC(C(=O)Nc2ccc(C(=O)O)cc2)CC1 — higher, -3.39%
- COc1cccc(C2C3=C(O)CCCC3=Nc3ncnn32)c1 (stereo not drawn) — higher, -1.1%
- Cc1ccc(Cn2c(C)c3cnn(CC(=O)NCCCN4CCN(C)CC4)c(=O)c3c2C)cc1 — higher, -0.447%
- CC1CCCN(C(=O)C2CCN(S(=O)(=O)c3c[nH]cn3)CC2)C1 (stereo not drawn) — higher, -2.29%
- CCOc1ccc(C2C=C(c3ccc(C)c(C)c3)Nc3ncnn32)cc1 (stereo not drawn) — higher, -3.23%
- O=C(CSCC(=O)Nc1cc(Cl)ccc1Cl)Nc1ccc(F)cc1 — higher, -1.6%
- O=S(=O)(NCCO)c1cccc2cccnc12 — higher, 0.0289%
- Cc1ccc(-n2c3c(c(=O)[nH]c2=O)C(NC(=O)c2cccc(Cl)c2)(C(F)(F)F)C(=O)N3)cc1 (stereo not drawn) — higher, 0.475%
- CCc1nnc(NC(=O)CSc2nc(N)cc(O)n2)s1 — higher, 1.75%
- CC(C)(C)NC1CCCCC1NS(=O)(=O)c1ccc(Cl)cc1 (stereo not drawn) — higher, 2.62%
- COc1cc(C2=NOC(C(=O)NCc3cccs3)C2)cc(OC)c1OC (stereo not drawn) — higher, -0.431%
- Cc1cc(C)c(S(=O)(=O)c2ccc(Cl)cc2)c(C)c1S(=O)(=O)Nc1ccc(NC(=O)c2ccccc2)cc1 — higher, -3.66%
- CCCC1CCc2c(sc(NC(=O)c3cc(C)oc3C)c2C#N)C1 (stereo not drawn) — higher, -3.9%
- O=C(NC1CC1)C1C2C=CC3(CN(Cc4ccccc4Cl)C(=O)C13)O2 (stereo not drawn) — higher, 0.287%
- CC(CNC(=O)c1cnccn1)NC(=O)c1cnccn1 (stereo not drawn) — higher, -1.02%
- COc1ccccc1CCNc1ncnc2onc(-c3cccc(Cl)c3)c12 — higher, -2.19%
- CCOC(=O)/C=C(\C)CCC=C(C(C)C)C(C)C — higher, 0.708%
- Cc1cc(C(=O)C(=O)Nc2nccs2)c(C)n1-c1cccc(Cl)c1 — higher, -1.06%
- Cc1ccccc1NC(=O)CN1C(=O)S/C(=C/c2ccc3c(c2)n(C)c(=O)n3C)C1=O — lower, -8.36%
- CN(C)CCCSc1nnc2c(n1)[nH]c1ccccc12 — higher, 3.96%
- O=C(N/C=C\NC(=O)c1ccccc1)c1ccccc1 — lower, -10.5%
- COc1cc(C2C(C(=O)Nc3ccccn3)=C(C)Nc3ncnn32)ccc1OCc1ccccc1 (stereo not drawn) — higher, 4.27%
- Fc1ccc(C2NCCn3cccc32)cc1 (stereo not drawn) — higher, -2.18%
- CC(C)CC1=NN(C(=O)c2ccncc2)C(O)(C(F)(F)F)C1 (stereo not drawn) — higher, -5.13%
- N#CC1=C(SCCSC2=C(C#N)C3(CCCC3)C(C#N)C(=O)N2)NC(=O)C(C#N)C12CCCC2 (stereo not drawn) — higher, 3.01%
- N#CC1=C(SCC(N)=O)N=C2C(=C(O)c3ccccc32)C1c1ccccc1 (stereo not drawn) — higher, -2.24%
- N#CC1=C(N)Oc2cc(Nc3ccccc3)ccc2C1c1cccnc1 (stereo not drawn) — lower, -10.8%
- O=C(c1ccccc1)N1CCN(C2CC(=O)N(c3cc(Cl)cc(Cl)c3)C2=O)CC1 (stereo not drawn) — higher, 0.475%
- Cn1c2c(s/c1=N\C(=O)c1cccs1)CCc1ccccc1-2 — higher, -1.43%
- O=C(NCc1ccc2c(c1)OCO2)c1nc(CS(=O)(=O)c2ccc(Cl)cc2)no1 — higher, -4.73%
- COc1cc(OC)cc(C(=O)Nc2ccc(S(N)(=O)=O)cc2)c1 — higher, -2.85%
- CCN(CC)c1ncnc2c1ncn2C1OC(CO)C(O)C1O (stereo not drawn) — higher, -1.06%
- CC1(C)CC(=NOC(=O)N2c3ccccc3C=Cc3ccccc32)CC(C)(C)N1 — higher, -2.42%
- Cc1c(Cl)cccc1N(CC(=O)N1CCCCCC1)S(=O)(=O)c1ccccc1 — higher, -2.03%
- COc1ccc(S(=O)(=O)N(C)c2ccccc2)cc1 — higher, 5.09%
- CC(Cc1ccccc1Sc1ccccc1O)N(C)C (stereo not drawn) — lower, -27.5%
